Reference: article PMC10761038
No constants are given. Whether binding was seen depends on the method and setting. In cells and extracts the contact can be indirect. Some entries that bind do so weakly or less than the wild type.

By UniProt entry, the sequences of proteins in these tests, tags left out.
UniProt P35221: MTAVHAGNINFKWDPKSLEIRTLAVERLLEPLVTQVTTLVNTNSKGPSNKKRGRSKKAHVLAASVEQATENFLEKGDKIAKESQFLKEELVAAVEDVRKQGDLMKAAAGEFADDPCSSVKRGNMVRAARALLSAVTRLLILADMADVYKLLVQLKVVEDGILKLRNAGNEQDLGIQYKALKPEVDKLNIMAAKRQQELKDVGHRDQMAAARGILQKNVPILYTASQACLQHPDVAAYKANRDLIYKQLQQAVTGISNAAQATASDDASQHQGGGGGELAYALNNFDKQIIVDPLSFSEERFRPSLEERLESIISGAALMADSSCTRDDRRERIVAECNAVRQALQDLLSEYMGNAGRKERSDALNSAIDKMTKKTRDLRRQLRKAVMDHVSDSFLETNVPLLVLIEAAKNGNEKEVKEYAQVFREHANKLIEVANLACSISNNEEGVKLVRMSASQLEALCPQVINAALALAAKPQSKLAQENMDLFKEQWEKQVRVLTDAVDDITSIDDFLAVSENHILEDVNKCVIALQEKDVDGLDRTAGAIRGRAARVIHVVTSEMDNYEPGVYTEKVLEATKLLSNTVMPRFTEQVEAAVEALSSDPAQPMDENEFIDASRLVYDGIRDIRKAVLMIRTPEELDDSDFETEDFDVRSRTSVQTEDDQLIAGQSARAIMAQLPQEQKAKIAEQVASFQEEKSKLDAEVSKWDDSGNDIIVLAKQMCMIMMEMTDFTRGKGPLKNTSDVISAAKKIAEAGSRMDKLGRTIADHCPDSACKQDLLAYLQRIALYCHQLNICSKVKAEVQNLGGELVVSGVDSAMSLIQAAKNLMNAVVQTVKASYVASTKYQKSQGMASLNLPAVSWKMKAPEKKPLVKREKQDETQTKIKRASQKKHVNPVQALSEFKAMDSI

Target: T1, Neon-Lgl1-S6A (UniProt Q80Y17)
T1 sequence: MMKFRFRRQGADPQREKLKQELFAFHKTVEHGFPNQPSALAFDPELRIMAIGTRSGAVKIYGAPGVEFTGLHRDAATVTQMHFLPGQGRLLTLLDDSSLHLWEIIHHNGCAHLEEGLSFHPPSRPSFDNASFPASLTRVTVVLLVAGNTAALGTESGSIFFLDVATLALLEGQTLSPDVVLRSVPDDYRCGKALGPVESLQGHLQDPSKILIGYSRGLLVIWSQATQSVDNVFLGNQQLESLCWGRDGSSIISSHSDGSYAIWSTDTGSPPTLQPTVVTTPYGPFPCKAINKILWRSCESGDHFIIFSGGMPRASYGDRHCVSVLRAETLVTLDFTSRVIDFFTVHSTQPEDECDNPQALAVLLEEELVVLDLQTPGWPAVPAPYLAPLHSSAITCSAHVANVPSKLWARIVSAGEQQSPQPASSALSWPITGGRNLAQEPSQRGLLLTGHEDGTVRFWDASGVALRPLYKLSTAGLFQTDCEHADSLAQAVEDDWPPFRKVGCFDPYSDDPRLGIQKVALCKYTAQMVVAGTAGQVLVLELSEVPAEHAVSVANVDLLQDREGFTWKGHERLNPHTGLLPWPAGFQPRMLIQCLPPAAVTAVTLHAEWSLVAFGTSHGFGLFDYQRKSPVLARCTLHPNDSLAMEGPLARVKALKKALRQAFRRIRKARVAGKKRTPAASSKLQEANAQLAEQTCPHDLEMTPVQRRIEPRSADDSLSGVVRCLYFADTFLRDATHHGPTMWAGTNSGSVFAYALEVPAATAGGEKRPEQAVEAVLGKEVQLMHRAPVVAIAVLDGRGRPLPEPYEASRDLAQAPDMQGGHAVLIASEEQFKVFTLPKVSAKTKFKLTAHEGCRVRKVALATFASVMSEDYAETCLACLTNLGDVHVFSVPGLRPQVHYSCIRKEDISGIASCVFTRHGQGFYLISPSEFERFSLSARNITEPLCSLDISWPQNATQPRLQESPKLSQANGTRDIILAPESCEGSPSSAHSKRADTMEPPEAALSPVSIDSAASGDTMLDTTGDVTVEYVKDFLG
Assay: co-IP; A549 cell lysates (parental, stably expressing GFP-Scrib or Neon-Lgl1 forms, or tet-shLgl1 without Dox) in NP-40 buffer (20 mM Tris pH 8, 150-200 mM NaCl, 0.5 mM EDTA, 1% NP-40, 1 mM DTT, 5% glycerol); antibody 2 h at 4°C, protein A/G beads, three washes, Western blot; IgG as negative …

Substance: α-catenin (endogenous) (from UniProt P35221 1-906)
- binding: binds
